About 4,300 (8.3%) of roughly 52,000 compounds were called active. No stated cut-off is given here; in the data, active means survival mostly below about 52% (no sharp cut-off); inactive means mostly above about 56%. The list shows a part of the results.
What follows are molecules tested on DeltatarO mutant (assay: growth inhibition of S. aureus wild type versus tarO mutant, primary screen, teichoic acid synthesis inhibitors, RN4220, OD600 (AID 463173)). Details: OD600, 18 h, stronger effect = lower value, screened at 18.75 µg/mL (by protocol).

Q: `COc1ccccc1C(=O)Nc1cccc(C(=O)OCc2cc(=O)n3ccsc3n2)c1` was tested. Which survival did it give?
A: Its survival is active: -4%.

Q: With `Cc1ccc(S(=O)(=O)N(CC(=O)Nc2ccc(Cl)cc2Cl)c2ccccc2C)cc1` as the molecule, how does the survival read?
A: Its survival is inactive: 106%.

Q: How did the survival turn out when `CCOC(=O)C1CCCN(C(=O)c2ccc3c(c2)sc2nc(-c4ccc(CC)cc4)cn23)C1` (stereo unspecified) was run?
A: Its survival is inactive: 58%.

Q: Which survival does the source give for `Cc1ccc(CNC(=O)C(C)n2nc(C)n3c(cc4sccc43)c2=O)cc1` (stereo unspecified) here?
A: Its survival is inactive: 111%.

Q: How did the survival turn out when `CCOc1ccc(S(=O)(=O)NC(=O)N(CC)Cc2cc3ccccc3o2)cc1` was run?
A: Its survival is inactive: 76%.

Q: `Cc1ccc(C(C)C)c(OCC(O)CN2CCN(c3ccccc3F)CC2)c1` (stereo unspecified) was tested. Which survival did it give?
A: The survival was active: -5%.

Q: With `COc1ccc(-n2nnnc2C2CCN(S(=O)(=O)c3ccc(NC(C)=O)cc3)CC2)cc1` as the molecule, how does the survival read?
A: Its survival is inactive: 77%.

Q: For `CCn1c(=N)c(C(=O)NCc2ccccc2)cc2c(=O)n3cccc(C)c3nc21`, which survival is on record?
A: The survival was inactive: 53%.

Q: `CC(C)c1ccc(C2NC(=O)c3n[nH]c(-c4cccs4)c32)cc1` (stereo unspecified) was tested. Which survival did it give?
A: The survival was inactive: 77%.

Q: Which survival does the source give for `COc1ccc(Cl)cc1S(=O)(=O)NCc1ccc2c(c1)CCN2C(=O)c1cccc(C)c1` here?
A: The survival was inactive: 120%.

Q: With `CCOc1ccc(CCNC(=O)CS(=O)(=O)Cc2nc(-c3ccc(OC)cc3)oc2C)cc1` as the molecule, how does the survival read?
A: Its survival is inactive: 83%.

Q: Which survival does the source give for `Cc1cccc2sc(N(CCN(C)C)C(=O)c3ccc4c(c3)OCCO4)nc12` here?
A: Its survival is inactive: 119%.

Q: With `COc1ccc(Cn2c(=O)n(Cc3ccco3)c(=O)c3oc4ccccc4c32)cc1` as the molecule, how does the survival read?
A: Its survival is inactive: 60%.

Q: With `Cc1cc(OC(C)C(=O)Nc2cccc(-c3nc4ccccc4o3)c2)cc(C)c1Cl` (stereo unspecified) as the molecule, how does the survival read?
A: Its survival is active: 46%.

Q: Which survival does the source give for `CC(=O)N1CCc2cc(S(=O)(=O)CCC(=O)Nc3ccc(C)cc3Br)ccc21` here?
A: The survival was inactive: 89%.

Q: Which survival does the source give for `Cc1ccc(Cn2c(C)c3cnn(CC(=O)NCc4ccccc4)c(=O)c3c2C)cc1` here?
A: The survival was inactive: 91%.

Q: `COc1ccc(-c2nc(CSCC(=O)N3CCN(c4cc(Cl)ccc4C)CC3)c(C)o2)cc1` was tested. Which survival did it give?
A: Its survival is active: -4%.

Q: With `O=C(CCS(=O)(=O)c1ccc(Br)cc1)Nc1ccc(F)cc1F` as the molecule, how does the survival read?
A: Its survival is inactive: 66%.

Q: With `Cc1ccc(-c2nc3ncccn3c2Nc2ccc3c(c2)OCCO3)cc1` as the molecule, how does the survival read?
A: The survival was inactive: 79%.

Q: With `CCc1ccc(CNc2ccc3c(c2)ncn3C(C)(C)C)cc1` as the molecule, how does the survival read?
A: The survival was active: -16%.

Q: Which survival does the source give for `Cc1cccc(NS(=O)(=O)c2ccc3c(c2)CC(C)N3C(=O)C2CCC2)c1C` (stereo unspecified) here?
A: The survival was inactive: 78%.

Q: How did the survival turn out when `COc1cccc2c1cc1c(=O)n(CC(=O)N3CCN(c4ccccc4)CC3)nc(C)n12` was run?
A: The survival was inactive: 95%.

Q: For `O=C1CC(c2nc(-c3ccccc3)no2)CN1c1ccccc1` (stereo unspecified), which survival is on record?
A: Its survival is active: 25%.

Q: How did the survival turn out when `CCOc1ccc(N2CC(c3nc4ccccc4n3CCOc3ccccc3OC)CC2=O)cc1` (stereo unspecified) was run?
A: The survival was inactive: 46%.

Q: With `CCc1nc2ccc(C(=O)NCc3cc(OC)ccc3OC)cc2nc1CC` as the molecule, how does the survival read?
A: The survival was inactive: 124%.

Q: `COc1ccccc1C(O)(C(=O)NNc1cccc(Br)n1)c1ccccc1OC` was tested. Which survival did it give?
A: The survival was inactive: 73%.

Q: How did the survival turn out when `CCOC(=O)c1c(NC(=O)COc2ccc(Cl)cc2C)sc2c1CCCCC2` was run?
A: The survival was inactive: 75%.

Q: How did the survival turn out when `Cc1ccc(CNC(=O)CS(=O)(=O)c2cccc3nsnc23)cc1` was run?
A: Its survival is inactive: 116%.

Q: How did the survival turn out when `COc1cccc(NC(=O)Cn2c(=O)n(CCC(=O)NCCc3ccc(Cl)cc3)c(=O)c3ccccc32)c1` was run?
A: Its survival is inactive: 84%.

Q: How did the survival turn out when `COc1ccc(-c2nc(CS(=O)(=O)CC(=O)NCc3ccccc3Br)c(C)o2)cc1` was run?
A: The survival was active: 41%.

Q: For `O=C(NCCCN1CCCCCC1)c1ccc2c(c1)sc1nc(-c3ccccc3)cn12`, which survival is on record?
A: The survival was active: 44%.

Q: `Cc1nc2cc(-c3ccccc3)nn2c(C)c1CCC(=O)Nc1ccc(F)cc1F` was tested. Which survival did it give?
A: The survival was inactive: 61%.

Q: With `Cc1ccc(CNC(=O)CCCn2c(=O)c3ccccc3n(CC(=O)Nc3ccc(C)cc3)c2=O)cc1` as the molecule, how does the survival read?
A: The survival was inactive: 89%.

Q: How did the survival turn out when `CCOc1ccc(NC(=O)CCc2c(C)nn(-c3ccc(N4CCCC4)nn3)c2C)cc1` was run?
A: Its survival is inactive: 94%.

Q: How did the survival turn out when `CCC(C(=O)Nc1ccc(C)c(C)c1)n1c(=O)c(C(F)(F)F)nc2ccccc21` (stereo unspecified) was run?
A: Its survival is inactive: 103%.

Q: `COC(=O)c1ccc(CO)nc1` was tested. Which survival did it give?
A: The survival was inactive: 87%.

Q: Which survival does the source give for `O=C1c2cc(OCCN3CCOCC3)ccc2-c2ccc(OCCN3CCOCC3)cc21` here?
A: Its survival is inactive: 60%.

Q: Which survival does the source give for `COc1ccc(CCNC(=O)Cc2c(C)c3cc4c(C(C)(C)C)coc4c(C)c3oc2=O)cc1` here?
A: The survival was inactive: 80%.

Q: Which survival does the source give for `COc1cc(-c2noc(-c3ccc(NCC4CCCO4)c([N+](=O)[O-])c3)n2)cc(OC)c1OC` (stereo unspecified) here?
A: Its survival is inactive: 53%.

Q: For `COc1ccc(NC(=O)CC2C(=O)N(c3ccc(OC)cc3)C(=O)N2CCC2=CCCCC2)cc1` (stereo unspecified), which survival is on record?
A: Its survival is inactive: 65%.

Q: Which survival does the source give for `Cc1ccc(C)c(Nc2cc(C(=O)NC3CCCC3)c3ccccc3n2)c1` here?
A: The survival was inactive: 87%.

Q: Which survival does the source give for `COc1ccc(-c2[nH]ncc2C(=O)NCc2ccccc2C)cc1` here?
A: Its survival is inactive: 74%.

Q: For `Cc1onc(-c2ccccc2Cl)c1C(=O)Oc1cc(F)cc(F)c1`, which survival is on record?
A: Its survival is inactive: 84%.

Q: `COC(=O)c1ccccc1NC(=O)Cn1c(=O)n(-c2cccc(OC)c2)c(=O)c2c(C)c(C(=O)N(C)C)sc21` was tested. Which survival did it give?
A: Its survival is inactive: 117%.

Q: Which survival does the source give for `CCN(CC)c1nc(Nc2ccccc2)nc(Oc2ccc(=O)[nH]n2)n1` here?
A: Its survival is inactive: 92%.

Q: With `CCC(C(=O)NCCc1ccc(SC)cc1)n1nc(C)c2sc3ccccc3c2c1=O` (stereo unspecified) as the molecule, how does the survival read?
A: The survival was inactive: 69%.

Q: For `CC(=O)N1CCCc2cc(S(=O)(=O)N3CCC(C(=O)NCc4ccc(C)cc4)CC3)ccc21`, which survival is on record?
A: Its survival is inactive: 67%.

Q: With `CCN(CC)CCNC(=O)c1cn(CC)c2ccc(S(=O)(=O)N3CCOCC3)cc2c1=O` as the molecule, how does the survival read?
A: Its survival is inactive: 111%.

Q: Which survival does the source give for `Cc1ccc(CCNC(=O)Cn2nc(-c3ccc(C)cc3)ccc2=O)cc1` here?
A: Its survival is active: 0%.

Q: `COc1ccc(OCC(=O)OCc2cc(=O)n3nc(C4CCCCC4)sc3n2)cc1` was tested. Which survival did it give?
A: The survival was inactive: 89%.

Q: `CC(=O)Nc1cccc(NC(=O)C(=O)NCCc2sc(-c3ccccc3)nc2C)c1` was tested. Which survival did it give?
A: The survival was inactive: 70%.

Q: Which survival does the source give for `COc1ccc(N2CCN(C(=O)c3cn(CC(C)C)c(=O)c4c3c3ccccc3n4C)CC2)cc1` here?
A: Its survival is inactive: 65%.

Q: How did the survival turn out when `CCc1ccc(-c2nn(CC(=O)Nc3ccccc3)c3c2cnc2ccc(F)cc23)cc1` was run?
A: Its survival is inactive: 75%.

Q: For `O=C(Cn1c(=O)c2cccn2c2ccccc21)Nc1cc(F)ccc1F`, which survival is on record?
A: Its survival is inactive: 44%.

Q: How did the survival turn out when `CCOC(=O)c1cc(-c2ccccc2)n(-c2cccc(C(=O)Nc3ccc(OC)cc3)c2)c1C` was run?
A: The survival was inactive: 83%.

Q: Which survival does the source give for `CCOc1ccc(N(C(=O)Cn2nnc3ccccc32)C(C(=O)NCc2ccccc2)c2ccc(OC)cc2)cc1` (stereo unspecified) here?
A: The survival was inactive: 52%.

— PubChem BioAssay AID463173 (ICCB-Longwood Screening Facility, Harvard Medical School, 2010)
